Measurements: PubChem BioAssay (NCATS)
The shares of active, inactive and inconclusive entries below differ from those in the screen. No potency is given beside an inconclusive call; the fits are too rough. Active and inactive are the calls of the source. The call rests on the fitted dose curve; in most records, active means well fitted inhibition curve with a large enough effect; inconclusive means small, poorly fitted or top-dose-only effect; inactive means no such curve, though single readings can be large or run the other way.

test: BET inhibitor-based combinations targeting novel dependencies in MECOM-rearranged (r) AML: MV-4-11 cell line (AID 2202233); conditions: MV-4-11 AML viability, CellTiter-Glo luminescence, 48 h; viability, % of control: at 46 µM (top of the series); further: nearly all actives have a fitted effect of over 45% in size
From the text: Ecotropic viral insertion site 1 (EVI1) is located on chromosome 3q26.2 as part of the MECOM (MDS and EVI1 complex) locus. Under normal hematopoiesis, EVI1 is a regulator of hematopoietic stem cell maintenance and self-renewal and EVI1 levels decrease as the cells differentiate. In approximately 5-10% of de novo acute myeloid leukemia (AML) EVI1 is aberrantly expressed, including Chromosomal inv(3)(q21;q26.2) or t(3;3)(q21;q26.2) alterations (MECOM-r) that account for about 50% of AML with EVI1 overexpression 31. AMLs with high levels of EVI1 have a poor prognosis and an overall survival time averaging between 10-14 months. EVI1 overexpression confers resistance in leukemia cells, highlighting the need to develop new targeted therapies for EVI1 overexpressing AMLs. Here, we performed an unbiased chemical drug screening by evaluating the single agent activity of a collection of 2,480 oncology-focused, approved and investigational drugs (NCATS Mechanism Interrogation Plates, MIPE v5.0) against a panel of seven AML cell lines. These included four MECOM-r cell-lines (AML-191, AML-194, UCSD-AML1 and HNT-34) and three non-MECOM-r AMLs (MV4-11, OCI-AML3 and SET-2). Exploiting the mechanistic redundancy built in the library, we identified target-level sensitivities in MECOM-r AML cells and relative activity as compared to other AML subtypes.
A collection of 2480 mechanistically annotated dugs (MIPE v5.0) was used to screen four 3q26.2 rearranged AML cell lines and three non-3q26.2 rearranged AML cell lines. This library purposely exploits redundancy by including multiple inhibitors of key onco-targets, while simultaneously encompassing mechanistic diversity, targeting more than 800 distinct mechanisms of action. Briefly, cells were seeded in 5 uL of growth media using a Multidrop Combi dispenser into 1536 well white polystyrene tissue culture treated plates (Corning) at a density of 500cells/well. For each cell-line, for each of the 2480 drugs in MIPE v5.0 library, an 11-point dose curve was generated via a 1536 pin-tool. Plates were incubated for 48 hr at standard incubator conditions, covered by a stainless steel gasketed lid to prevent evaporation. Cell viability was determined by luminescence based, Cell Titer Glo assay (Promega). In detail, 3 uL of Cell Titer Glo were added to each well and plates were incubated at room temperature for 15 min with a stainless-steel lid in place. Luminescence readings were taken using a Viewlux (PerkinElmer) with a 2 s exposure time per plate. Compound dose-response curves were normalized to DMSO and empty well controls on each plate. Quantitative drug activity data from dose-response curves was determined utilizing area Under the Curve (AUC) and Z-transformed AUC (Z-AUC, a mean-centering transformation applied to each individual cell-line screened).
Potency means the concentration at half of the fitted maximal effect; tags describe the fitted curve by direction and shape.

Compound	Potency	viability, % of control
CC(N[C@H]1C[C@@H]1c1ccccc1)c1ccc2c(c1)OCCO2 (stereo not given in full)	inconclusive [inhibitor, full curve, poor fit]	
C[C@H]1[C@H](O)[C@@H](C)/C=C/C=C/CC/C=C/C=C/C=C/C=C/[C@H](O[C@@H]2O[C@H](C)[C@@H](O)[C@H](N)[C@@H]2O)C[C@@H]2O[C@](O)(C[C@@H](O)[C@H](O)CC[C@@H](O)C[C@@H](O)C[C@@H](O)CC(=O)O[C@H]1C)C[C@H](O)[C@H]2C(=O)O	inactive	
COC1(CS(=O)c2ccccc2)CCN(CCc2c[nH]c3ccc(F)cc23)CC1 (stereo not given)	inconclusive [inhibitor, partial curve, poor fit]	
CC(C)C[C@H](CN)CC(=O)O	inactive	
CC1(N2CCC(n3c([C@@H]4CCCNC4)nc4ccccc43)CC2)CCCCCCC1	active: 16.6 µM	
C[C@@H]1CC[C@H]2[C@@H](C)C(=O)O[C@@H]3O[C@@]4(C)CC[C@@H]1[C@]32OO4	inconclusive [inhibitor, partial curve]	
C[C@]12COC(=O)C[C@@H]1CC[C@@H]1[C@@H]2CC[C@@]2(C)[C@H]1CC[C@]2(C)O	inconclusive [inhibitor, full curve, poor fit]	
CC(C)[C@]12O[C@H]1[C@@H]1O[C@@]13[C@@]1(C)CCC4=C(COC4=O)[C@@H]1C[C@@H]1O[C@@]13C2=O	inconclusive [inhibitor, full curve]	
CC(=O)O[C@@]12CO[C@@H]1C[C@H](O)[C@@]1(C)C(=O)[C@H](O)C3=C(C)[C@@H](O)C[C@@](O)([C@@H](OC(=O)c4ccccc4)[C@H]21)C3(C)C	active: 23.5 µM	
C#CCN(C)[C@H](C)Cc1ccccc1	inactive	
Cn1c(/C=C/CO)c(CO)c2c1C(=O)C=C(N1CC1)C2=O	inconclusive [inhibitor, single point]	
CN1C(=O)CCS(=O)(=O)C1c1ccc(Cl)cc1 (stereo not given)	inactive	
O=C(O)C1=CCCN(CCOC(c2ccc(C(F)(F)F)cc2)c2ccc(C(F)(F)F)cc2)C1	inconclusive [inhibitor, partial curve]	
C[C@]12CCC(=O)C(O)=C1CC[C@@H]1[C@@H]2CC[C@]2(C)C(=O)CC[C@@H]12	inconclusive [inhibitor, partial curve, poor fit]	
C#CC1(O)CCC2C3CCC4=CC(=O)CCC4(C)C3CCC21C (stereo not given)	inconclusive [inhibitor, single point]	
C[C@]12CC[C@H]3[C@@H](CC[C@@]45O[C@@H]4C(O)=C(C#N)C[C@]35C)[C@@H]1CC[C@@H]2O	inconclusive [inhibitor, full curve, poor fit]	
CNCC(O)c1ccc(O)cc1 (stereo not given)	inactive	
Cn1c(COP(=O)(NCCBr)NCCBr)cnc1[N+](=O)[O-]	inconclusive [inhibitor, partial curve]	
C#C[C@]1(O)C=C[C@H]2[C@@H]3CCC4=CC(=O)CC[C@@H]4[C@H]3CC[C@@]21CC	active: 18.6 µM	
O=C(N[C@@H](COc1ccc2[nH]c(=O)[nH]c2c1)c1ccccc1)c1cccn(Cc2ccc(F)c(F)c2)c1=O	inconclusive [inhibitor, partial curve]	

Compound	Potency	viability, % of control
CN(C)c1cc2c(cc1Sc1nc3c(N)nccc3n1CCNCC(C)(C)C)OCO2	active: 0.662 µM	
CC(C)(NC(=O)O[C@@H]1CN2CCC1CC2)c1csc(-c2ccc(F)cc2)n1		inconclusive: 76.1% [inhibitor]
CN1[C@H]2CC(O)C[C@H]1[C@H]1O[C@H]12 (stereo not given in full)	inactive	
Clc1ccccc1C(c1ccccc1)(c1ccccc1)n1cccn1	inconclusive [inhibitor, partial curve, poor fit]	
CC1(C)C(=O)N(c2ccc(C#N)c(C(F)(F)F)c2)C(=S)N1Cc1ccc(-c2cn[nH]n2)cc1	inconclusive [inhibitor, partial curve]	
C[C@@H](C1CC[C@@]2(O)C3=CC(=O)[C@@H]4C[C@@H](O)[C@@H](O)C[C@]4(C)[C@H]3CC[C@]12C)[C@H](O)CCC(C)(C)O (stereo not given in full)	inactive	
C[C@]12CC[C@H]3[C@@H](CCC4=CC(=O)CC[C@@]43C)[C@H]1CC[C@H]2OC(=O)CCC1CCCC1	inactive	
CN(C)[C@@H]1C(=O)C(C(N)=O)=C(O)[C@@]2(O)C(=O)C3=C(O)c4c(O)cccc4[C@@](C)(O)[C@H]3C[C@@H]12	inconclusive [inhibitor, full curve, poor fit]	
NC(=O)[C@@H](CC1CC1)[C@@H](CCC(F)(F)F)C(=O)N[C@H]1N=C(c2ccccc2)c2cccc(F)c2NC1=O	inactive	
COc1cc2cc(c1Cl)N(C)C(=O)C[C@H](OC(=O)C(C)C)[C@]1(C)O[C@@H]1[C@H](C)[C@@H]1C[C@@](O)(NC(=O)O1)[C@H](OC)/C=C/C=C(\C)C2	inactive	
O=S(=O)(F)Cc1ccccc1	inconclusive [inhibitor, single point]	
O=C1CC[C@@]2(O)[C@H]3Cc4ccc(O)c5c4[C@@]2(CCN3CC2CC2)[C@H]1O5	inconclusive [inhibitor, single point]	
CN1C(=O)COc2c(C(=O)NC3CN4CCC3CC4)cc(Cl)cc21 (stereo not given)	inactive	
CCCC[N+]1(C)[C@H]2CC(OC(=O)[C@H](CO)c3ccccc3)C[C@H]1[C@H]1O[C@H]12 (stereo not given in full)	inactive	
CC(O)(CS(=O)(=O)c1ccc(F)cc1)C(=O)Nc1ccc(C#N)c(C(F)(F)F)c1 (stereo not given)	inconclusive [inhibitor, partial curve, poor fit]	
CCCN1CCO[C@@H]2c3cc(O)ccc3OC[C@H]21	inconclusive [inhibitor, full curve, poor fit]	
Cc1ncc(OC[C@@]2(c3cccc(F)c3)C[C@H]2C(=O)Nc2ccc(F)cn2)c(C)n1	inconclusive [inhibitor, full curve, poor fit]	
O=C(O)C(=O)c1cn(Cc2ccccc2)c2ccc(-c3ccc(OC(F)(F)F)cc3)cc12	inconclusive [inhibitor, single point]	
O=c1[nH]c2ccccc2n1CCCN1CCC(n2c(=O)[nH]c3cc(Cl)ccc32)CC1	inconclusive [inhibitor, partial curve]	
NC1=NC(=O)N2CC12 (stereo not given)	inconclusive [inhibitor, single point]	
